The target in the assay is T1, human insulin receptor extracellular domain (HIR ECD) (human, UniProt P06213 28-956, limits assumed).
T1 construct: extracellular domain; Purified on a wheat germ agglutinin column from serum free medium of CHO cells permanently transfected with the HIR ECD (Coloma et al. 2000)
The assay is described as follows: ELISA, HIR ECD plated, detection with biotinylated goat anti-human IgG. For orientation: In an ELISA, binding on a coated surface is turned into a signal by an enzyme label.

B1: HIR Ab-GUSB fusion protein (GUSB fused to the carboxyl terminus of the HIR Ab heavy chain) (other, human)
heavy: QVQLQQSGPELVKPGALVKISCKASGYTFTNYDIHWVKQRPGQGLEWIGWIYPGDGSTKYNEKFKGKATLTADKSSSTAYMHLSSLTSEKSAVYFCAREWAYWGQGTLVTVSA[human IgG1 constant region left out]SSLQGGMLYPQESPSRECKELDGLWSFRADFSDNRRRGFEEQWYRRPLWESGPTVDMPVPSSFNDISQDWRLRHFVGWVWYEREVILPERWTQDLRTRVVLRIGSAHSYAIVWVNGVDTLEHEGGYLPFEADISNLVQVGPLPSRLRITIAINNTLTPTTLPPGTIQYLTDTSKYPKGYFVQNTYFDFFNYAGLQRSVLLYTTPTTYIDDITVTTSVEQDSGLVNYQISVKGSNLFKLEVRLLDAENKVVANGTGTQGQLKVPGVSLWWPYLMHERPAYLYSLEVQLTAQTSLGPVSDFYTLPVGIRTVAVTKSQFLINGKPFYFHGVNKHEDADIRGKGFDWPLLVKDFNLLRWLGANAFRTSHYPYAEEVMQMCDRYGIVVIDECPGVGLALPQFFNNVSLHHHMQVMEEVVRRDKNHPAVVMWSVANEPASHLESAGYYLKMVIAHTKSLDPSRPVTFVSNSNYAADKGAPYVDVICLNSYYSWYHDYGHLELIQLQLATQFENWYKKYQKPIIQSEYGAETIAGFHQDPPLMFTEEYQKSLLEQYHLGLDQKRRKYVVGELIWNFADFMTEQSPTRVLGNKKGIFTRQRQPKSAAFLLRERYWKIANET
light: DIQMTQSPSSLSASLGERVSLTCRASQDIGGNLYWLQQGPDGTIKRLIYATSSLDSGVPKRFSGSRSGSDYSLTISSLESEDFVDYYCLQYSSSPWTFGGGTKMEIKRTVAAPSVFIFPPSDEQLKSGTASVVCLLNNFYPREAKVQWKVDNALQSGNSQESVTEQDSKDSTYSLSSTLTLSKADYEKHKVYACEVTHQGLSSPVTKSFNRGEC
notes: range 23-633; also called HIRMAb-GUSB fusion protein; pCD-HC-GUSB with pCD-LC
For orientation: EC50 means the concentration needed to bring the measured effect to its halfway point. Low readings indicate a more potent agent, high ones a less potent agent. On to B1, for which the EC50 was determined as 810 pM.

Source of the values: patent US20180251535A1 (ARMAGEN, published 2018).
